Assay results from PubChem BioAssay AID1159614 (National Center for Advancing Translational Sciences (NCATS), 2016).
Hit rate of the full screen: of about 45,000 compounds, about 65 (0.1%) were called active. Calls come from the whole dose curve; as a rule, active = well fitted activation curve with a large enough effect; inconclusive = small, poorly fitted or top-dose-only effect; inactive = no such curve, though single readings can be large or run the other way. This is one part of the list.

What follows are compounds tested against Galactocerebrosidase (Homo sapiens) (UniProt P54803) (assay: A Novel Cell-Based Assay to Identify Small Molecules for B -Galactocerebrosidase). Conditions: 145M-Twi-hGALC-G270D cells (Twitcher mouse brain line with human GALC G270D), HMU-beta-Gal fluorescence, 48 h; series mostly up to 57.5 µM; activation: at the top concentration.
Chain of UniProt P54803 (P54803 whole entry, looked up): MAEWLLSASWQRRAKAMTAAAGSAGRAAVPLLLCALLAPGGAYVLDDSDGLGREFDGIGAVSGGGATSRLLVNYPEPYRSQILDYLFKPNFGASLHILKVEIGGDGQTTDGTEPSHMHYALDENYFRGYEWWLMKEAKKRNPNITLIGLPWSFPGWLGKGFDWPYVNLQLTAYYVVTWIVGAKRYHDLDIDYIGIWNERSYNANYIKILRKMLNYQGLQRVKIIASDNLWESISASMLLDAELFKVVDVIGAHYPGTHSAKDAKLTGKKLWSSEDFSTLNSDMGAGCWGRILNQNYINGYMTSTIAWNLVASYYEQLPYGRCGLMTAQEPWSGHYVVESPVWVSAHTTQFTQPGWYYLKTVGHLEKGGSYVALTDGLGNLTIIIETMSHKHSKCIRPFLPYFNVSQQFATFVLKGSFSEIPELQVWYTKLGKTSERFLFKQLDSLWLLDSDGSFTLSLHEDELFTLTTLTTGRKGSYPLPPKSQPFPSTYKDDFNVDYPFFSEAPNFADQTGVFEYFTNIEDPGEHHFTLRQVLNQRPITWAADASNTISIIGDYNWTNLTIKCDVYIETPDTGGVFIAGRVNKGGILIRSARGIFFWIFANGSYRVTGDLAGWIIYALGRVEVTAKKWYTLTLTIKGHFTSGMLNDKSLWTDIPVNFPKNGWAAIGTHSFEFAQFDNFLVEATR
Summary of the method: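 Brain-derived Twitcher mouse 145M-Twi cells stably expressing human GALC-G270D or wild-type GALC, treated live, then residual GALC activity read by fluorescence of HMU-b-Gal substrate (0.1 mM final) in citrate-phosphate buffer pH 5.2 with sodium taurocholate. Signal increase indicates enhancement.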
Note: 0% is about no effect; nearly all actives have a fitted effect of over 65% in size.

activation, inactive:
Cc1ccccc1-c1nc(CN2CCC(C(=O)NCc3ccc(F)cc3)CC2)c(C)o1 0.0448%
CC(=O)c1ccc(NC(=O)c2ccc3c(c2)N(Cc2cccc(Cl)c2)C(=O)c2ccccc2S3=O)cc1 (centres undefined) -2.13%
Cc1c(C(=O)NCc2ccccc2Cl)sc2ncnc(N(C)C3CCCCC3)c12 -5.05%
Cc1ccc(C(C)C)c(O)c1 -15.3%
Cc1cc(Nc2ccccc2C)n2nc(Cc3ccc(Cl)cc3)nc2n1 -10.9%
Cc1ccn2c(Nc3ccc4c(c3)OCCO4)c(-c3ccc(C)o3)nc2c1 -14%
Cn1c(=O)oc2cc(S(=O)(=O)CCC(=O)N3CCN(c4cccc(Cl)c4)CC3)ccc21 -25.5%
O=C(NCc1ccccc1)c1ccc(NC(=O)N2CC3CCCN3c3ccccc32)cc1 (centres undefined) -9.43%
CCOc1cc(C(=O)Nc2ccc(-c3cn4cccnc4n3)cc2)cc(OCC)c1OCC -12.5%
CCNC(=O)C1CCN(S(=O)(=O)c2ccc3c(c2)CCCN3C(C)=O)CC1 -18%
CCCN(CCC)c1ccc(C2N=C(N)Nc3nc4ccccc4n32)cc1 (centres undefined) -11.5%
Cc1cccc(NC(=O)C2CCCN2S(=O)(=O)c2ccc3nc(-c4ccccc4)[nH]c3c2)c1 (centres undefined) -10.3%
Cc1nc2ccccn2c(=O)c1NC(=O)c1ccc(F)c(F)c1 -9.52%
Cc1ccc2c(c1)c1c(c(=O)n(-c3ccccc3)c(=O)n1CC(=O)NCC1CCCO1)n2C (centres undefined) 0.103%
Cc1ccc(S(=O)(=O)c2nnn3c2nc(NCc2ccc4c(c2)OCO4)c2sccc23)cc1C -1.36%
CCCCNC(=O)CCCCCn1c(=O)[nH]c2ccccc2c1=O -25%
Cc1ccc(C)c(N2CCN(S(=O)(=O)c3cc(C(=O)Nc4ccc(Oc5ccccc5)cc4)ccc3F)CC2)c1 -42%
Cc1cccc(N2CCN(Cc3nnc(-c4cccc(Br)c4)o3)CC2)c1C -20.7%
Cc1ccc(Cl)cc1NC(=O)CN1C(=O)c2ccccc2Sc2ncccc21 -10.9%
Cc1ccc(CNS(=O)(=O)c2c(C)nc3sc(C)cn3c2=O)cc1 -11.2%
CCc1ccc(-c2nc(CS(=O)CC(=O)NCc3ccc(F)cc3)c(C)o2)cc1 (centres undefined) -0.613%
CCCn1cnc2cc(NC(=O)c3cc(OC)c(OC)c(OC)c3)ccc21 -5.5%
COc1ccc(CCNC(=O)c2ccc3c(c2)nc2n3CCCCC2)cc1OC -3.62%
O=C(NCc1cccc(Cl)c1)C1CCCN(c2nn3cc(-c4ccc(F)cc4)nc3s2)C1 (centres undefined) -8.99%
COc1ccccc1NC(=O)Cn1c(=O)oc2cc(S(=O)(=O)NCc3ccccc3)ccc21 -35.2%
Clc1ccc2nc(-c3ccc(N4CCOCC4)cc3)c(Nc3ccccc3)n2c1 -24.5%
CCCOC(=O)c1cccc(NC(=O)CSc2nnc3cc(C)c4ccccc4n23)c1 -5.25%
CC(=O)c1ccc(NC(=O)c2nc(-c3ccccc3)n(-c3ccc(C)cc3)n2)cc1 1.98%
CCOc1ccc(S(=O)(=O)c2cc3cccc(OCC)c3oc2=O)cc1 -15.5%
CC1CCc2c(sc3nnn(Cc4ccccc4Cl)c(=O)c23)C1 (centres undefined) -12.6%
CCc1ccccc1N(C)C(=O)c1nn(-c2ccc(OC)cc2)c(=O)c2c1c1ccccc1n2C -16.9%
Cc1cccc(NC(=O)c2ccc3oc(=O)c(S(=O)(=O)c4ccc(F)cc4)cc3c2)c1C -22.5%
CCOc1ccc(CNc2cc(C)nc3nc(-c4cccc(C)c4)nn23)cc1OC -32%
Cc1ccc(NCc2cc3cc4c(cc3n(CC(=O)Nc3ccc(C)cc3)c2=O)OCCO4)cc1 -10.1%
CCOc1ccccc1NCc1nnc2n1CCCCC2 -6.32%
Cc1ccc(-c2nnc3c4ccccc4c(-c4ccccc4)nn23)cc1 4.49%
CC(C)NC(=O)CSc1cn(CC(=O)N2CCCCCC2)c2ccccc12 5.44%
COc1ccc(N2CCN(C(=O)c3cnc(N4CCOCC4)c4ccccc34)CC2)cc1 1.25%
CCOc1ccccc1CNCc1c(C(=O)O)n(Cc2ccccc2)c2cc(OC)ccc12 -3.05%
CC1CCC(NC(=O)c2ccc3c(c2)N(Cc2ccccc2F)C(=O)c2ccccc2S3(=O)=O)CC1 (centres undefined) -15.4%
CCOc1ccccc1Oc1ncnc2c1oc1ccccc12 -13.1%
COc1ccccc1OCc1nc2ccccc2n1Cc1ccccc1 24.3%
CCOc1ccccc1C1C(C(=O)Nc2ccccc2)=C(C)Nc2nc(-c3ccccc3)nn21 (centres undefined) -5.47%
Cc1ccc(C)c(S(=O)(=O)c2nnn3c2nc(NC2CCCC2)c2sccc23)c1 -0.916%
COc1ccc(C)cc1NC(=O)c1nnn(CC(=O)Nc2c(C)cccc2C)c1N -6.01%
CCOc1c(CNCCSc2nnnn2C)cccc1OC -12.9%
COc1ccc(OC)c([C@@H]2Nc3ccc(C(=O)O)cc3[C@@H]3C=CC[C@@H]32)c1 -6.31%
Cc1cccc(C)c1NC(=O)C(=O)NCC(c1ccc2c(c1)OCO2)N1CCN(C)CC1 (centres undefined) -12.6%
COc1ccc(CNC(=O)C(CC(C)C)NS(=O)(=O)c2ccc3c(c2)oc(=O)n3C)cc1 (centres undefined) -3.47%
CCc1cccc(NC(=O)c2cc3c(=O)oc4ccc(C)cc4c3s2)c1 2.03%
CSc1nnc(NC(=O)c2cc(=O)c3cc(C)c(C)cc3o2)s1 10.1%
Cc1ccc(S(=O)(=O)c2cn(Cc3ccccc3)c3cc(N4CCCC4)c(F)cc3c2=O)c(C)c1 -5.82%
CC(=O)c1ccc(NC(=O)CCn2cccn2)cc1 -7.01%
Cc1ccc(Cn2c(=O)n(Cc3ccc(C(=O)NC4CCN(Cc5ccccc5)CC4)cc3)c(=O)c3ccccc32)cc1 -10.5%
CCc1cccc(NC(=O)C2CCCN2S(=O)(=O)c2ccc3nc(-c4ccccc4)[nH]c3c2)c1 (centres undefined) -11.6%
O=c1c(-c2ccccc2)c1-c1ccccc1 -14.3%
CCc1ccc(NC(=O)Cn2c(=O)n(-c3cccc(OC)c3)c(=O)c3c(C)c(C(=O)N(C)C)sc32)cc1 -12.8%
CCCc1ccc(OCc2ccc(C(=O)Nc3ccccc3C(=O)OC)o2)cc1 -7.82%
CCc1ccc(CNC(=O)c2cccc(-n3c(C)nc4cccnc43)c2)cc1 -10.6%
Cc1ccc(-n2c(C)nc3c(cnn3-c3ccccc3)c2=O)cc1 -5.88%
Cc1ccc2oc(C(=O)N3CCC(c4nc5ccccc5s4)CC3)c(C)c2c1 -7.47%
O=C(c1ccc(Br)cc1)N(Cc1ccco1)c1ccccn1 -16.1%
CN1C(=O)Cc2cc(S(=O)(=O)NCc3ccccc3Cl)ccc21 -14.6%
COCCCNC(=O)CCCn1c(=O)c2ccccc2n(CC(=O)Nc2ccc(C)cc2Cl)c1=O -11.7%
Cn1c(=O)c2c(nc(N3CCOCC3)n2Cc2ccccc2Cl)n(C)c1=O -36.2%
CCOc1ccc(-c2c(C)nn3c(C)c(C(=O)NCCN(C)C)cnc23)cc1OCC -28.8%
CC(C)Cn1c(-c2ccccc2Cl)nc2ccccc21 -7%
O=C(NCCc1ccc(Cl)cc1)c1nnc(Cc2ccc(Cl)cc2Cl)o1 -10.5%
O=C(NCCc1ccc(Cl)cc1)c1ccc2nc(CCc3ccccc3)oc2c1 -16.5%
COc1cc(OC)cc(-c2nnc(SCC(=O)c3ccc([N+](=O)[O-])cc3)o2)c1 2.47%
Cc1nc(S(=O)(=O)N2CCN(c3cccc(Cl)c3)CC2)cn1C -6.59%
COc1ccc(N(CC(=O)NCCc2ccc(C)cc2)S(=O)(=O)c2c(C)nn(C)c2C)cc1 -5.09%
O=C(CSc1nncn2c1cc1occc12)Nc1ccc(F)c(Cl)c1 -10.9%
CC(C)Cn1c(CN2CCN(c3cccc(Cl)c3)CC2)nc2c1c(=O)[nH]c(=O)n2C 5.48%
COc1cc(Nc2nn(-c3ccc(OC(F)(F)F)cc3)nc2C(C)=O)cc(OC)c1 -13.8%
COc1cc(OC)cc(-n2c(=O)c3ccccc3n(Cc3ccccc3C#N)c2=O)c1 -11%
O=C(CCCn1c(=O)[nH]c2ccc(Br)cc2c1=O)N1CCN(c2cccc(Cl)c2)CC1 -30.5%
COC(=O)c1ccccc1NC(=O)Cn1nnc(-c2ccc(OC)cc2)n1 -11%
CCOC(=O)c1cc(-c2ccc(OC)cc2)n(CCC(=O)Nc2cccc(C)c2C)c1C -7.99%
CCCCc1nn2c(=O)cc(COC(=O)c3ccc4c(c3)OCO4)nc2s1 -13%
CCc1ccc(NC(=O)Cn2nc(C(F)(F)F)c3c2CCCC3)cc1 -9.67%
COc1cc(NC(=O)c2ccc(-c3nc(CSc4ccccc4)c(C)o3)cc2)cc(OC)c1 -12.7%
CC1=C(C(=O)Nc2ccccc2)C(C(C)C)n2nc(SCc3ccccc3C)nc2N1 (centres undefined) -4.48%
CCOc1ccc(-c2cn3c(n2)sc2cc(C(=O)NCCCN4CCCCC4)ccc23)cc1 -11.6%
CCC(=O)Nc1cc(-c2cn3cccnc3n2)ccc1OC -0.688%
COc1ccc(NC(=O)c2cc(-c3ccc(F)cc3)no2)cc1OC -7.72%
Cc1c(Cl)cccc1NC(=O)Cn1c(=O)cc(C)c2c(C)nn(-c3cccc(F)c3)c21 -10.9%
O=C(OCC(O)CO)c1ccccc1Nc1ccnc2c(C(F)(F)F)cccc12 (centres undefined) -12.7%
COc1ccccc1Cc1nc2ccccc2nc1SCC(=O)Nc1c(C)cccc1C -5.04%
O=C(Cn1ncn2cccc2c1=O)NCc1cccc(Br)c1 -3.36%
COc1ccc(N(CC(C)C)S(=O)(=O)c2nnc(NC(=O)c3ccco3)s2)cc1 -16.8%
CCn1c(C)c(C)c2cc(C(=O)N3CCN(c4ccccc4)CC3)ccc21 -4.31%
CCN(C(=O)CCS(=O)(=O)c1cc2c(cc1C)NC(=O)CO2)c1cccc(C)c1 -0.974%
CN(C)CCN(Cc1ccccc1)S(=O)(=O)c1csc(C(N)=O)c1 -11.7%
Cc1cc(NC(=O)c2ccco2)cc(-c2nc3ccccc3o2)c1O -17.5%
CCCNC(=O)Cn1nc(-c2ccc(C)cc2)c2cnc3ccc(CC)cc3c21 -3.83%
Cc1ccccc1C(=O)N(Cc1ccc(N(C)C)cc1)CC1CCCO1 (centres undefined) 0.302%
Cc1ccc(N2CCN(C(=O)NCc3noc4ccc(C)cc34)CC2)c(C)c1 -17.7%
Cc1cccc(NC(=O)c2ccc(CNS(=O)(=O)c3ccc4c(c3)C(C)(C)C(=O)N4C)cc2)c1 5.09%
